Out of some 16,000 compounds screened, about 120 (0.75%) were called active. Inconclusive results (about 4%) are left out. Calls come from the whole dose curve; as a rule, active = well fitted inhibition curve with a large enough effect; inconclusive = small, poorly fitted or top-dose-only effect; inactive = no such curve, though single readings can be large or run the other way. Some of the results follow.
target: Rap guanine nucleotide exchange factor 3 (Homo sapiens) (UniProt O95398); assay: Validation qHTS for antagonist of cAMP-regulated guanine nucleotide exchange factor 3 (EPAC1); details: EPAC1 Rap1B-BODIPY-GDP exchange, fluorescence; series mostly up to 150 µM; activity change, negative = inhibition: at the top concentration; note: nearly all actives have a fitted effect of over 75% in size;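 for activity change, negative = inhibition: plate controls were DMSO for no effect and ATA control for full effect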
Method in brief: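 EPAC1 (100 nM) mixed with 250 nM RAP1B-BODIPY-GDP and 50 uM GDP; compounds in concentration series, 5 min at room temperature. Fluorescence (ex 480/em 540 nm) read every 5 min for 30 min; normalized to ATA control and DMSO.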
Potency is the fitted concentration of half-maximal effect.

Sequence of UniProt O95398 (O95398 whole entry, looked up): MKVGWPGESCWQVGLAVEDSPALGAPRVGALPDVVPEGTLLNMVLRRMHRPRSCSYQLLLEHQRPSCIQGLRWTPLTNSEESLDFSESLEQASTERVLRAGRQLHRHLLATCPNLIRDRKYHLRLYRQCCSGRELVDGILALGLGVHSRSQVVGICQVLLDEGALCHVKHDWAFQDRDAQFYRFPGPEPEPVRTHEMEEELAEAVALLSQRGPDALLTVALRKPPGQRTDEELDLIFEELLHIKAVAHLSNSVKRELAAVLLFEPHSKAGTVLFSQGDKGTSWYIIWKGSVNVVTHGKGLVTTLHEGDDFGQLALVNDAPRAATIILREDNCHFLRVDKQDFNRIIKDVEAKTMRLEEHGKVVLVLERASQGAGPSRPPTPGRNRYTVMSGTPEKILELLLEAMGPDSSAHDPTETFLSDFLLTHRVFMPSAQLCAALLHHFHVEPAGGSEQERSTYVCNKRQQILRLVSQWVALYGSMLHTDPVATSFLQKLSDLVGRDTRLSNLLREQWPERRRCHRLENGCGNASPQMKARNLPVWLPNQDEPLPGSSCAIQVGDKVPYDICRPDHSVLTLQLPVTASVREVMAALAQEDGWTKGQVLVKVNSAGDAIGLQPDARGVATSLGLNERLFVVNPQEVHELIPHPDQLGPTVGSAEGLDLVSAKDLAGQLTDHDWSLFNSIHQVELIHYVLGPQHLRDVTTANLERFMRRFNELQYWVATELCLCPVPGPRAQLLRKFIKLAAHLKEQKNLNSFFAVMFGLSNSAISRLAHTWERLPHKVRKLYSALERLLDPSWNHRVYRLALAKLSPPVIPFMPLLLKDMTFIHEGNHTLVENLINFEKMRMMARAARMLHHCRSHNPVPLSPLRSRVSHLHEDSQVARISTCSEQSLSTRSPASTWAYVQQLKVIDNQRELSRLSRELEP

Activity change, negative = inhibition, inactive:
CC1=C(/C=C/C(C)=C\C=C\C(C)=C\C(=O)O)C(C)(C)CCC1
Cc1nc(C)c(C(=O)NCc2nc(-c3cccc(NC(=O)c4ccccn4)c3)oc2C)s1 -12.6%
CCCN1CCC(=O)N([C@H](CO)CC(C)C)CC1 6.63%
CCN1CCCC1CNC(=O)c1cnn(-c2nccc(-c3cccs3)n2)c1C(C)C (stereo not drawn) 10%
COc1ccc2[nH]cc(CCNc3nc(-c4cccnc4)nc4ccccc34)c2c1 -9.8%
N#Cc1cccc(NC(=O)N2CC[C@@]3(CCCN(C(=O)c4cnccn4)C3)C2)c1 7.6%
CCCCOC(=O)CC(CC(=O)OCCCC)(OC(C)=O)C(=O)OCCCC -2.22%
O=S(=O)(NCc1ccccc1)[C@@H]1CC2C=CC1C2 (stereo partly drawn) 0.734%
CSc1ccc(CN2CCOc3ccc(CN4CCCCC4CO)cc3C2)cc1 (stereo not drawn) 4.25%
COCCn1c(=O)c(-c2cc(F)cc(F)c2)nc2cnc(N3CCOCC3)nc21 6.24%
c1cc2c3c(c1)CCCN3CCC2 14%
O=P(O)(O)OC(CO)CO 18.5%
O=C(c1cccc(F)c1)N1CCC[C@@]2(CCN(c3ccccc3)C2)C1 21.5%
COc1ccc2c(=O)cc(-c3ccccc3)oc2c1O -2.57%
Nc1ncnc2c1[nH]c(=O)n2C1OC(CO)C(O)C1O (stereo not drawn) 14%
CCCCC(=O)NCCc1c(Cc2ccccc2)[nH]c2ccccc12 3.94%
Cc1cnc2ccccc2c1/C=C/c1ccc(N(C)C)cc1 1.35%
O=C(NCc1nnc2n1CCN(Cc1ccc(C(F)(F)F)cc1)CC2)c1cccc(F)c1 1.02%
CCNc1ncc2nc(-c3cccs3)c(=O)n(CCc3ccccc3)c2n1 16.7%
CC(=O)NCCNc1nc(-c2ccc(C(=O)N(C)C)cc2)nc2ccccc12 -5.23%
C[N+]1(CC(=O)c2ccc(Oc3ccccc3)cc2)CCOCC1 9.33%
COc1ccc(-c2oc3cc(OC)c(OC(C)=O)c(OC)c3c(=O)c2OC)cc1OC(C)=O 10.4%
CC(=O)O[C@H]1CC[C@@]2(C)C(=CC[C@H]3[C@@H]4CC[C@H](C(C)=O)[C@@]4(C)CC[C@@H]32)C1 8.34%
Cn1c(=O)[nH]c2nc[nH]c2c1=O 10.8%
CN1CCN(c2ncc3nc(-c4ccccc4)c(=O)n(-c4ccccc4)c3n2)CC1 3.04%
Nc1ncnc(Nc2ccccc2)n1 15.8%
CCC1(C2CCN(Cc3ccccn3)CC2)NC(=O)N(CC2COc3ccccc3O2)C1=O (stereo not drawn) 5.43%
O=C(c1cc(C(F)(F)F)cc(C(F)(F)F)c1)N1CCC2(CCCN(c3ccncc3)C2)CC1 -8.13%
O=[N+]([O-])c1cccc2[nH]cnc12 2.36%
N#C/C(=C\c1ccc(O)c(O)c1)C(=O)NCc1ccccc1
O=c1c(-c2cc(F)cc(F)c2)nc2cnc(N3CCOCC3)nc2n1C[C@H]1CCCO1 15.5%
O=C(/C=C/c1ccccc1)NCCO -4.58%
CN(C)c1ccnc(-c2cccc(NS(C)(=O)=O)c2)n1 10.3%
N#CC(=C(\N)Sc1ccccc1N)/C(C#N)=C(/N)Sc1ccccc1N 4.26% [at 75.8 µM]
CC(C)CCCC(C)NC(C)C (stereo not drawn) 14.9%
C#C[C@]1(O)CC[C@H]2[C@@H]3CCC4=CC(=O)CC[C@@H]4[C@H]3CC[C@@]21CC 13.2%
COc1cccc(-c2cc(NCc3cccs3)ncn2)c1 -21.5%
COc1ncc2nc(-c3ccc(Cl)cc3)c(=O)n(C[C@H]3CCCO3)c2n1 3.04%
CC(CN(C)C)CN1c2ccccc2Sc2ccccc21 (stereo not drawn) 16.4%
CC1(C)[C@@H](OC(=O)CCC(=O)O)CC[C@]2(C)[C@H]3C(=O)C=C4[C@@H]5C[C@@](C)(C(=O)O)CC[C@]5(C)CC[C@@]4(C)[C@]3(C)CC[C@@H]12
COCCn1c(=O)c(C)nc2cnc(Oc3ccccc3)nc21 9.82%
CC(=O)N1CCC2(CC1)CN(C(=O)Nc1cccc(C#N)c1)C2 6.68%
COc1ccc(NC(=O)C2CC23CCN(Cc2cccc4ncccc24)CC3)cc1Cl (stereo not drawn) 21.1%
COc1cc(O)ccc1C(C)=O 10.6%
O=c1c(-c2cc(F)cc(F)c2)nc2cnc(N3CCOCC3)nc2n1Cc1ccc(F)cc1 24.9%
C#CCn1c(=O)c2c(ncn2C)n(C)c1=O
CCOC(C)OCC 5.96%
C[C@@]12CCC3c4ccc(O)cc4CCC3C1CCC2O (stereo partly drawn) 14%
CC(=O)Nc1ccccc1-c1nc(CNC(=O)c2ccc(C)cc2)c(C)o1 -4.21%
NC[C@@H]1O[C@@H](O[C@H]2[C@@H](O)[C@H](O[C@@H]3[C@@H](O)[C@@H](N)C[C@H](N)[C@H]3O[C@H]3O[C@H](CN)[C@@H](O)[C@@H](O)[C@H]3N)O[C@H]2CO)[C@H](N)[C@@H](O)[C@@H]1O 35.1%
CC(NC(=O)C1CC1)c1nnc2n1CCN(Cc1cccc(F)c1F)CC2 (stereo not drawn) 2.02%
Cc1ncc2c(c1CNC(=O)c1ccc3c(c1)OCO3)CCN(C(=O)/C=C/c1ccccc1Cl)C2 1.43%
COc1ccc(-c2cc(=O)c3ccccc3o2)cc1OC -4.63%
CC(=O)OCC(=O)[C@H]1CC[C@H]2[C@@H]3CCC4=CC(=O)CC[C@]4(C)[C@H]3CC[C@]12C -3.22%
c1ccc(-c2onc(-c3ccco3)c2-c2ccc3[nH]ccc3c2)cc1 9.12%
CN(C)C(=O)c1ccc(-c2cncnc2NCCc2cnc[nH]2)cc1 -2.46%
C=CCSCC=C 12.4%
O=C(C[n+]1ccncc1)c1ccc2c(c1)CCCC2 18.3%
O=C(O)CCC(=O)C(=O)O 3.46%
OC1CCC2Cc3ccccc3N=C12 (stereo not drawn) -1.74%
O=C(Nc1ccccc1)N1CCC2(CC1)CCN(C(=O)c1ccco1)CC2 7.53%
Cc1nc2cnc(Oc3cccc(Cl)c3)nc2n(CCc2ccccc2)c1=O 7.85%
O=C(CN1Cc2ccccc2OC(c2ccccc2)C1)NCc1cccnc1 (stereo not drawn) -7.69%
COc1cc(=O)n2c(c1C(=O)NC(C)c1ccco1)CCN(C(=O)c1ccc3c(c1)OCCO3)CC2 (stereo not drawn) 1.16%
CC(C)C[C@@H](NC(=O)[C@@H](O)[C@H](N)Cc1ccccc1)C(=O)O 8.77%
CC(N)C(=O)OC(C)(C)Cc1ccc(Cl)cc1 (stereo not drawn)
Cc1sc2ccccc2[n+]1CCc1ccccc1 0.561%

Potency, active:
Nc1ncnc2c1nc(Sc1ccc(Cl)cc1)n2[C@H]1OC2COP(=O)(O)O[C@@H]2C1O (stereo partly drawn) 316 nM
